Reference: PubChem BioAssay AID248 (DTP/NCI, 2004)
Toxic doses and inconclusive results are not listed. The source holds more than one record for some entries. The other results are left out here. There may be further records. The records of an entry are repeated measurements in other runs, samples, wells, individuals or studies.

Tested on: L1210 leukemia ip in BDF1 mice, survival T/C
Experiment: NCI In Vivo Anticancer Drug Screen. Data for tumor model L1210 Leukemia (intraperitoneal) in B6D2F1 (BDF1) mice
Settings: higher = longer survival
[1] = endpoint: mean survival time, dose: 400.0 mg/kg/injection, schedule: Q04DX002 (ip), vehicle: saline with Tween-80
[2] = endpoint: mean survival time, dose: 100.0 mg/kg/injection, schedule: Q04DX003 (ip), vehicle: saline

SMILES: CCCCCCCCCCCCC1CCCC(C)C1 (stereo unspecified)
- T/C [1]: 97 % of control and 166 % of control

SMILES: COc1ccc2ncc(C)c(CO)c2c1
- T/C (endpoint: mean survival time, dose: 100.0 mg/kg/injection, schedule: Q01DX009 (ip), vehicle: Klucel (hydroxypropylcellulose) (HPC)): 102 % of control and 166 % of control

SMILES: c1cc2n(n1)CCN2
- T/C (endpoint: median survival time, dose: 400.0 mg/kg/injection, schedule: Q04DX003 (oral), vehicle: saline): 97 % of control and 170 % of control
- T/C (endpoint: median survival time, dose: 400.0 mg/kg/injection, schedule: Q08DX002 (oral), vehicle: saline): 108 % of control and 155 % of control

SMILES: CCCOC(=O)C1(N)CCCC1
- T/C (endpoint: mean survival time, dose: 225.0 mg/kg/injection, schedule: Q01DX Z (ip), vehicle: saline): 119 % of control and 159 % of control

SMILES: CC[n+]1cccc(NC(=O)c2ccc(NC(=O)c3ccc(C(=O)Nc4ccc5c(ccc[n+]5CC)c4)cc3)cc2)c1
- T/C (endpoint: mean survival time, dose: 25.0 mg/kg/injection, schedule: Q01DX001 (ip), vehicle: alkali diluted with saline): 111 % of control and 153 % of control

SMILES: Clc1cc(N2CC2)nc(N2CC2)n1
- T/C (endpoint: mean survival time, dose: 9.37 mg/kg/injection, schedule: Q04DX003 (ip), vehicle: saline): 120 % of control and 174 % of control

SMILES: NS(=O)(=O)c1ncnc2nc[nH]c12
- T/C (endpoint: mean survival time, dose: 50.0 mg/kg/injection, schedule: Q01DX Z (ip), vehicle: carboxymethylcellulose (CMC)): 110 % of control and 153 % of control

SMILES: CCCCCCCCN(C)N=Nc1ccc(Cl)cc1C(=O)O
- T/C (endpoint: mean survival time, dose: 200.0 mg/kg/injection, schedule: Q01DX009 (ip), vehicle: Klucel (hydroxypropylcellulose) (HPC)): 120 % of control and 153 % of control

SMILES: COC1CCC(/C(C#N)=C/c2ccco2)CC1 (stereo unspecified)
- T/C [1]: 87 % of control and 150 % of control

SMILES: CC1(C)N=C(N)N=C(N)N1c1ccc(OCc2ccc(C(=O)Nc3cccc(S(=O)(=O)F)c3)cc2)c(Cl)c1
- T/C (endpoint: mean survival time, dose: 50.0 mg/kg/injection, schedule: Q01DX009 (ip), vehicle: Klucel (hydroxypropylcellulose) (HPC)): 98 % of control, 112 % of control, 173 % of control

SMILES: NC(=O)c1cn(C2OC(CO)C(O)C2O)c2nc(Cl)nc(N)c12 (stereo unspecified)
- T/C [2]: 118 % of control and 165 % of control

SMILES: c1nc(SSc2ncnc3nc[nH]c23)c2[nH]cnc2n1
- T/C (endpoint: mean survival time, dose: 45.0 mg/kg/injection, schedule: Q04DX003 (ip), vehicle: saline): 106 % of control and 152 % of control
- T/C [2]: 103 % of control, 104 % of control, 164 % of control

SMILES: O=C(NCCCNC(=O)Nc1ccc(C2=NCCN2)cc1)Nc1ccc(C2=NCCN2)cc1
- T/C (endpoint: mean survival time, dose: 62.0 mg/kg/injection, schedule: Q01DX Z (ip), vehicle: water): 114 % of control and 177 % of control

SMILES: CCC(=O)OCC1OC(n2cnc3c(=S)nc(N)[nH]c32)C(OC(=O)CC)C1OC(=O)CC (stereo unspecified)
- T/C (endpoint: mean survival time, dose: 3.0 mg/kg/injection, schedule: Q01DX Z (ip), vehicle: carboxymethylcellulose (CMC)): 98 % of control, 122 % of control, 151 % of control
